The values that follow come from PMC9911399, “Two distinct binding modes provide the RNA-binding protein RbFox with extraordinary sequence specificity”.

T1: RBFOX1 RRM RbFoxmut (Fox-RRM*) (Homo sapiens, UniProt Q9NWB1 109-208, R118D;E147R;N151S;E152T)
T1 sequence: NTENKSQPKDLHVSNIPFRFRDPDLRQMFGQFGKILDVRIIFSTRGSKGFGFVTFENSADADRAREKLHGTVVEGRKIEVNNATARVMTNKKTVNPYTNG

B1: ACACUGG (DNA:RNA)
RNA: GGGAGACCGGAAUUCAGAUUGUCCACACUGGUUAAAUCCCGUCGUAGCCACCA
DNA 1: CAATCTGAATTCCGGTCTCCC
DNA 2: TGGTGGCTACGACGGGATT
B2: AUAUGCA (DNA:RNA)
RNA: B1 RNA with C26U, C28U, U29G, G30C, G31A
DNA 1: CAATCTGAATTCCGGTCTCCC
DNA 2: TGGTGGCTACGACGGGATT
B3: GGAUUUC (DNA:RNA)
RNA: B1 RNA with A25G, C26G, C28U, G30U, G31C
DNA 1: CAATCTGAATTCCGGTCTCCC
DNA 2: TGGTGGCTACGACGGGATT
B4: UUGGACG (DNA:RNA)
RNA: B1 RNA with A25U, C26U, A27G, C28G, U29A, G30C
DNA 1: CAATCTGAATTCCGGTCTCCC
DNA 2: TGGTGGCTACGACGGGATT
B5: GUAACCA (DNA:RNA)
RNA: B1 RNA with A25G, C26U, C28A, U29C, G30C, G31A
DNA 1: CAATCTGAATTCCGGTCTCCC
DNA 2: TGGTGGCTACGACGGGATT
B6: AGAGCAA (DNA:RNA)
RNA: B1 RNA with C26G, C28G, U29C, G30A, G31A
DNA 1: CAATCTGAATTCCGGTCTCCC
DNA 2: TGGTGGCTACGACGGGATT
B7: UUGGCUA (DNA:RNA)
RNA: GGGAGACCGGAAUUCAGAUUGUCCUUGGCUAUUAAAUCCCGUCGUAGCCACCA
DNA 1: CAATCTGAATTCCGGTCTCCC
DNA 2: TGGTGGCTACGACGGGATT
B8: AAACCGG (DNA:RNA)
RNA: B1 RNA with C26A, U29C
DNA 1: CAATCTGAATTCCGGTCTCCC
DNA 2: TGGTGGCTACGACGGGATT
B9: GUGAUAC (DNA:RNA)
RNA: B7 RNA with U25G, G28A, C29U, U30A, A31C
DNA 1: CAATCTGAATTCCGGTCTCCC
DNA 2: TGGTGGCTACGACGGGATT

Substitutions are numbered along the chain they refer to; changes in the protein carry UniProt numbers. The list shows a part of the results.

For the test, the target named is T1, RBFOX1 RRM RbFoxmut (Fox-RRM*). The test is described as follows: EMSA; HiTS-Eq, 1 nM pool, 10 min; buffer printed only for the single-RNA assays: 10 mM Tris pH 7.5, 150 mM NaCl, 3.4 mM EDTA, 0.001% NP-40, 30 C. The note with it: tags: His6 N-terminal (pET28a); label: 5' 32P. The gist of the method: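 Purified wild-type or mutant RbFox RRM at increasing concentrations was equilibrated with 1 nM of 5′-radiolabelled RNA carrying 7 randomized nucleotides for 10 min in 50 µL. Unbound RNA was separated by 8% native PAGE and sequenced. Relative association constants came from read-count changes of each RNA species compared with the control reaction, normalised to the cognate motif.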
On the technique in general: In EMSA bound probe runs differently from free probe, usually more slowly.
For the molecule B1, the binding signal was 0.123 KA relative to UGCAUGU.

On to B2, for which the binding signal is 0.208 KA relative to UGCAUGU.

With B3, the binding signal was 0.0732 KA relative to UGCAUGU.

With B4, the binding signal is 0.0635 KA relative to UGCAUGU.

As for B5, the binding signal is 0.111 KA relative to UGCAUGU.

With B6, the binding signal was 0.0663 KA relative to UGCAUGU.

For the molecule B7, the binding signal is 0.168 KA relative to UGCAUGU.

With B8, the binding signal is 0.08 KA relative to UGCAUGU.

For the molecule B9, the binding signal is 0.101 KA relative to UGCAUGU.
